From publication PMC12136788
Some of the results follow.

B1: chr7:127373434:127373542:-|CDS|ENSG00000048405|unk|FALSE|unique (ssRNA)
RNA: GGGAGUUCUACAGUCCGACGAUCAAAACAUAGUGAUUCAAAACAUGAUGGCACUUCUAACUCUCCUAGUAAAAAGUAUGAAGUAGCUGACGUCGGUAUUGAAGUAAAAGUCACAAAAAACUUUUCUCUUCACAGAUGCAAUAACAACAGAGGAUUGAGCAUCA
B2: ENSG00000109332:stop:overlap|stop_codon|ENSG00000109332|stop_codon|NA|stop_codon (ssRNA)
RNA: GGGAGUUCUACAGUCCGACGAUCCAGACAGAGAUAAGUACAAUAGGUUAGCAAGAGAGUGGACAGAGAAAUACGCUAUGUUGUAGGGUACAACAGAAUAUCUCGGGAAUGGACUCAGAAGUAUGCCAUGUGAUGCUACCUUAACAACAGAGGAUUGAGCAUCA
B3: ENSG00000151502:stop:overlap|stop_codon|ENSG00000151502|stop_codon|NA|stop_codon (ssRNA)
RNA: GGGAGUUCUACAGUCCGACGAUCCCACCUCCCUGGGUGAGGUGCGGACCCCCAGCCAGCUGUCUGACAACAACUGCAGGCAGUAGGCCCCCAGGGCCGAGAAGAUGCUGGGCACCCACCCAGCACCCCCAUCUACCAACACCACAACAGAGGAUUGAGCAUCA
B4: chr1:154944474:154944574:-|3pUTR|ENSG00000163346|msi1_unk|total|mutant (ssRNA)
RNA: GGGAGUUCUACAGUCCGACGAUCUCGAGGCCCAGCACGAGGACUUACCCUGGGGUUUUGUCCGGUUUGGAAGCAGCUGUCCCCCGGGGGUGAAGUCCCCCCCCUUUUUUUUUUUACCCCUGCUUCUCCCACGGCUUCACCUCCCAACAGAGGAUUGAGCAUCA
B5: chr12:14497711:14497812:+|CDS|ENSG00000171681|unk|FALSE|unique (ssRNA)
RNA: GGGAGUUCUACAGUCCGACGAUCACAGCGUCUGCCCCCAGAAGCUGCCAGCACAUCUCUGCCUCAGAAGCCACACUUGAAGUUAGCACGCGUUCAGAGUCAAAAUGGCAUAGUACUGUCAUGGAGUGUCCUGGAGGUGGAUCGCAACAGAGGAUUGAGCAUCA
B6: ENSG00000124766:be:win_1601|3pUTR|ENSG00000124766|bound_else_gene|NA|bound_elsewhere_windowed (ssRNA)
RNA: GGGAGUUCUACAGUCCGACGAUCCGUUUUGGACCCGCGCUCCCAUCCCCCACCUUCCCGGGCCGGGGACCCACUCUGCCCAGCCGGAGGGACGCGGAGGAGGAAGAGGGUAGACAGGGGCGACCUGUGAUUGUUGUUAUUGAUCAACAGAGGAUUGAGCAUCA

molecular target: MSI1 full-length (mouse, UniProt Q61474 1-362); assay: nsRBNS (natural sequence RNA bind-n-seq); RBNS binding buffer (assumed for nsRBNS): 25 mM Tris pH 7.5, 150 mM KCl, 3 mM MgCl2, 0.01% Triton X-100, 500 ug/ml BSA, 20 U/ml SUPERase-In, 4 C; UNK is unkempt and MSI1 is Musashi-1; names of the RNAs are library labels; protein concentration not given here; high values mean tight binding
UniProt Q61474, sequence (Q61474 whole entry): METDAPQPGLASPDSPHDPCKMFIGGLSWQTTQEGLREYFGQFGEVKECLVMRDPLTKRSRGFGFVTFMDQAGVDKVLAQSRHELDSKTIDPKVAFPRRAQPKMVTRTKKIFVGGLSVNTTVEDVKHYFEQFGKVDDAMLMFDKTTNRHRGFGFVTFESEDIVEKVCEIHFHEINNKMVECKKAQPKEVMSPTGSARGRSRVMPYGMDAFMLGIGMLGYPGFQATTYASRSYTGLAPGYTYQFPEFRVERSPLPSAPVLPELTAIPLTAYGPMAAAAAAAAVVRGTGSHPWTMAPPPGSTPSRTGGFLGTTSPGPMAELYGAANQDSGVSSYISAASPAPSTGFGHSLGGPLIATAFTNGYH

Row | Binder | binding signal [enrichment R]
1 | B1 | 0.903
2 | B2 | 2.05
3 | B3 | 1.77
4 | B4 | 0.714
5 | B5 | 0.586
6 | B6 | 0.493
